Source: PubChem BioAssay AID1476 (National Center for Advancing Translational Sciences (NCATS), 2009)
The whole screen tested about 200,000 compounds, of which about 4,500 (2.2%) were called active. The inconclusive results got no clear call from the source; some entries with a clear call stand among them for comparison. Calls come from the whole dose curve; as a rule, active = well fitted inhibition curve with a large enough effect; inconclusive = small, poorly fitted or top-dose-only effect, or effect the other way; inactive = flat fitted curve, though single readings scatter. Where the call is inconclusive, the potency comes from a doubtful curve fit.

These compounds were tested against Cruzipain (Trypanosoma cruzi) (UniProt P25779) (assay: qHTS Assay for Promiscuous and Specific Inhibitors of Cruzain (without detergent)). Conditions: purified cruzain, Z-FR-AMC fluorescence, no detergent.
Method in brief: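 Detergent-free condition (0.00005% Triton X-100) in acetate buffer pH 5.5 with DTT. 1.5 nM enzyme and compound were pre-mixed 15 min, then 2 uM Z-FR-AMC substrate added; reaction progress from fluorescence change between first and third reads (60 s).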
Note: nearly all actives have a fitted effect of over 40% in size.
Potency is the fitted concentration of half-maximal effect; tags give direction and shape of the fitted curve.
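Throughout, for max response, negative = inhibition: plate controls were enzyme without inhibitor for no effect and buffer without enzyme for full effect.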

Sequence of UniProt P25779 (P25779 whole entry, looked up): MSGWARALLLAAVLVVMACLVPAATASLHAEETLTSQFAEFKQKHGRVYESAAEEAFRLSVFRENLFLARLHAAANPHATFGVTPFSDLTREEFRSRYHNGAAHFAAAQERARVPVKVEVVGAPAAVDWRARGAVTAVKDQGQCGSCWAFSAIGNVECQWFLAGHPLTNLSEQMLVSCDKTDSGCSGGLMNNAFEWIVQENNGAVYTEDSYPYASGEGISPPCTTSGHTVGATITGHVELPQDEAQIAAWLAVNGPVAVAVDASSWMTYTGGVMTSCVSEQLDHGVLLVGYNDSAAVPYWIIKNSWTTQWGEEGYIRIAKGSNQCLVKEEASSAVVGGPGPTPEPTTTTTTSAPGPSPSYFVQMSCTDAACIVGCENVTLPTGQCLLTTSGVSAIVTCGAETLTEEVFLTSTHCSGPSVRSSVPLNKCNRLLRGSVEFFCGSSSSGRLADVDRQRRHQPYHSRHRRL

**Q.** For Oc1ccccc1C=NC1=NN(c2cccc(C(F)(F)F)c2)CC1, which Potency is on record?
**A.** Its Potency is inconclusive: 39.8 µM [inhibitor, single point].

**Q.** Cc1cccc(CNC(=O)c2ccc(Cn3c(=O)c4cccn4c4cccnc43)cc2)c1 was tested. Which max response, negative = inhibition did it give?
**A.** The max response, negative = inhibition was inactive: 0.529%.

**Q.** COc1cccc(Nc2nc(-c3ccccc3)c3cc(C)ccc3n2)c1 was tested. Which Potency did it give?
**A.** The Potency was inconclusive: 39.8 µM [inhibitor, single point].

**Q.** How did the Potency turn out when COC(=O)c1ccc(C(NC(=O)OCc2ccccc2)/C(=C/[C@@H](C)C(=O)N(C)C)c2cccnc2)cc1 (some centres not stated) was run?
**A.** Its Potency is inconclusive: 39.8 µM [activator, single point].

**Q.** For Cc1ccc(Cl)cc1N1CCN(C(=O)c2ccc(C)c(-n3c(C)nc4cccnc43)c2)CC1, which Potency is on record?
**A.** Its Potency is inconclusive: 31.6 µM [activator, partial curve].

**Q.** For CCc1nc2ccc(C(=O)N3CCN(c4ccc(Cl)cc4)CC3)cc2nc1CC, which Potency is on record?
**A.** Its Potency is inconclusive: 39.8 µM [activator, single point].

**Q.** Which max response, negative = inhibition does the source give for Cc1cc(C(F)F)n2nc(C(=O)Nc3ccc(F)c(Cl)c3)nc2n1 here?
**A.** Its max response, negative = inhibition is inactive: 1.53%.

**Q.** Which Potency does the source give for Cc1ccccc1N=C1SC(CC(=O)Nc2ccc3ccccc3c2)C(=O)N1Cc1ccccn1 (configuration not stated) here?
**A.** Its Potency is inconclusive: 12.6 µM [inhibitor, single point].

**Q.** Which Potency does the source give for O=C(NNC(=S)NC(=O)c1sc2ccccc2c1Cl)c1ccc(Cl)cc1 here?
**A.** The Potency was inconclusive: 25.1 µM [inhibitor, single point].

**Q.** With Cc1ccc(CN2CC(C(=O)Nc3ccc4c(C)cc(=O)oc4c3)CC2=O)cc1 (configuration not stated) as the compound, how does the Potency read?
**A.** The Potency was inconclusive: 31.6 µM [activator, single point].

**Q.** CC(C)(C)OC(=O)N1CCC[C@H]1C(O)(c1ccccc1)c1ccccc1 was tested. Which max response, negative = inhibition did it give?
**A.** Its max response, negative = inhibition is inactive: 7.84%.

**Q.** With O=C(CSc1ccc2ccccc2c1)Nc1ccc(S(=O)(=O)Nc2nccs2)cc1 as the compound, how does the Potency read?
**A.** Its Potency is inconclusive: 39.8 µM [activator, single point].

**Q.** COc1cccc(NC(=O)/C(C#N)=C\c2cn(Cc3ccc(Cl)cc3)c3ccccc23)c1 was tested. Which Potency did it give?
**A.** The Potency was active: 10 µM.

**Q.** Which max response, negative = inhibition does the source give for COc1ccc(CC(=O)Nc2sc3c(c2C(=O)Nc2c(C)cccc2C)CCCCC3)cc1 here?
**A.** Its max response, negative = inhibition is inactive: 0.0742%.

**Q.** For Cc1ccc(C2C3=C(Nc4[nH]n(-c5ccccc5)c(=O)c42)c2ccccc2C3=O)cc1 (configuration not stated), which Potency is on record?
**A.** The Potency was inconclusive: 12.6 µM [inhibitor, partial curve, poor fit].

**Q.** Which max response, negative = inhibition does the source give for CCCn1c(=O)c2sccc2n2c(CCCC(=O)Nc3cccc(CC)c3)nnc12 here?
**A.** The max response, negative = inhibition was inactive: 13.1%.

**Q.** How did the Potency turn out when COc1ccc2[nH]c(-c3ccccc3)c(CCNC(C)=O)c2c1 was run?
**A.** Its Potency is inconclusive: 25.1 µM [inhibitor, partial curve, poor fit].
